Experimental data published in article PMC4336329 (PLoS ONE, 2015).
In all, about 310,000 compounds went through this assay and about 2,200 (0.71%) showed an effect of 50% or more. Effects have a minus sign here. The list shows a part of the results.

The molecules below were run against human ether-à-go-go-related gene (hERG) potassium channel (human, UniProt Q12809) (assay: primary screen, population patch clamp on CHO cells stably expressing hERG).
Chain of human ether-à-go-go-related gene (hERG) potassium channel (Q12809 whole entry, looked up): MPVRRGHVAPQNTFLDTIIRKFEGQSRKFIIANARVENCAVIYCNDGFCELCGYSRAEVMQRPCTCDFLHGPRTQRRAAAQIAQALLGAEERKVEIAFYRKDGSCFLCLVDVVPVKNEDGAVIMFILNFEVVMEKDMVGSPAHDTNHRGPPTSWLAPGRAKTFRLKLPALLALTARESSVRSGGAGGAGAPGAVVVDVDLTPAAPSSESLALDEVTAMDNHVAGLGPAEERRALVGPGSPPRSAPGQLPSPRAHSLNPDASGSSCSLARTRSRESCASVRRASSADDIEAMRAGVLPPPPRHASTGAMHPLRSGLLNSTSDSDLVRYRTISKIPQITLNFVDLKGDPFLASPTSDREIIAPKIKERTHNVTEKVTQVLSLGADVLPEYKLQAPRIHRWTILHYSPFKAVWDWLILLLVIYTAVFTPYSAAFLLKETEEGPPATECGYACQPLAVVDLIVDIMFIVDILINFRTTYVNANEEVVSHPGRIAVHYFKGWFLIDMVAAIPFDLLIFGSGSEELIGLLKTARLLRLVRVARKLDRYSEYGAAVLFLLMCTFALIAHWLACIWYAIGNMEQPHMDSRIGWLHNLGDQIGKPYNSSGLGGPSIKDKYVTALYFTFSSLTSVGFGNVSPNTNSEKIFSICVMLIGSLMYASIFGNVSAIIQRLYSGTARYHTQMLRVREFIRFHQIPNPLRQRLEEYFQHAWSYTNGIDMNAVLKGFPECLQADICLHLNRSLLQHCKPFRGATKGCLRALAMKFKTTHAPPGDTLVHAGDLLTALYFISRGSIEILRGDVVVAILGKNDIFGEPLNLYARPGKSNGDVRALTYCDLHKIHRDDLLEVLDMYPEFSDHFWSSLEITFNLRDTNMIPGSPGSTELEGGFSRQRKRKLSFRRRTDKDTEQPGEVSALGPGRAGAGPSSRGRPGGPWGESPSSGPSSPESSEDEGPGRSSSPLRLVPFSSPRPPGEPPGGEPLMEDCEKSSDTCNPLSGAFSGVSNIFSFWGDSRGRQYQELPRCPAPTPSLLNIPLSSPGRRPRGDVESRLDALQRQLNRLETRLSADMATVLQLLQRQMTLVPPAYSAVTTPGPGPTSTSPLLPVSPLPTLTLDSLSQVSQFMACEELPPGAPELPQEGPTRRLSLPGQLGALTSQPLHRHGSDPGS

SMILES | hERG current change (%, negative = inhibition) at 1uM
CCN(CC)c1nc(-c2ccc(Cl)cc2)cc(C(F)(F)F)c1C#N | -0.0575%
O=C(CNC(=O)c1ccccc1)OCC(=O)N1N=C(c2ccc(Cl)cc2)CC1c1ccco1 (stereo not shown) | -28%
Cc1ccc(C(=O)NCc2ccccn2)c(Cl)c1 | 20.6%
COC1(NC(=O)c2ccccc2)C(C)=CC(=O)C=C1C | 10.8%
COc1ccc2cc(C#N)c(N3CCOCC3)nc2c1 | 11.3%
O=C(c1ccccc1)N1CCC(CC2CC(c3cccc(Br)c3)=NO2)(C(=O)NCC2CCCCC2)CC1 (stereo not shown) | 11.4%
CCOCCCNC(=S)Nc1cc(C)cc(C)c1 | 10.6%
CCOC(=O)C(Cc1c[nH]c2ccccc12)NC(=O)c1ccco1 (stereo not shown) | 8.56%
COCCNC(=O)/C(C#N)=C/c1cc(C)n(C2CCCCC2)c1C | 12%
CCc1ccc(/C=C2/SC(N3CCOCC3)=NC2=O)cc1 | 0.86%
O=c1[nH]c(=O)n(Cc2ccccc2)c(O)c1/C=N/Nc1c(F)c(F)c(F)c(F)c1F | 10.5%
CCOC(=O)c1c(S(=O)(=O)N2CCCCC2C)c(C)n(C)c1C (stereo not shown) | 17%
O=Nc1c2nc3ccccc3n(O)c-2c2ccccc12 | 4.98%
Cc1cc(Cl)c(S(=O)(=O)NCc2cccnc2)cc1OCC(N)=O | 11.5%
O=C1N/C(=N/O)S/C1=C/c1cccnc1 | 6.06%
CCOC(=O)c1ccc(NC(=O)CCc2c(C)nc3ncnn3c2C)cc1 | -31.4%
CCOc1ccc(C(=O)NCCC(=O)N2CCC3(CC2)NCCc2[nH]cnc23)cc1OCC | 14%
O=C(NCCc1ccccc1)C(c1ccc(F)cc1)N(C(=O)c1csnn1)C1CC1 (stereo not shown) | 10.6%
O=C(c1cc2nc(-c3ccccc3)cc(C(F)(F)F)n2n1)N1CCN2CCCC2C1 (stereo not shown) | -2.99%
CCOC(=O)C1C(=O)NCC2CCCC21 (stereo not shown) | 9.43%

SMILES | hERG current change (%, negative = inhibition) at 1uM
COc1ccc(N(CC(=O)NCc2ccccc2)S(C)(=O)=O)cc1 | 9.77%
Cc1ccc(C(=O)NNC(=O)C(C)Oc2ccccc2F)cc1S(=O)(=O)N1CCOCC1 (stereo not shown) | 13.5%
CCN1C(=O)/C(=C2/C(=O)N3c4c(cc(OC(C)=O)cc42)C(C)=CC3(C)C)SC1=S | 0.484%
O=C(Cn1cnc2ccccc2c1=O)Nc1nc2ccccc2s1 | 17.7%
O=C(CSc1ncccn1)Nc1ccc2c(c1)CCC2 | 12.2%
COc1ccccc1N(CC(=O)N1CCCCCC1)S(C)(=O)=O | 16.4%
COc1cc(C(=O)NCCSc2ccc(Cl)cc2)cc(OC)c1OC | 11.4%
CC(C)NC(=O)c1nn(C)c2ccccc12 | 11.5%
O=C(Cn1c(=O)n(CCCC(=O)NC2CCCC2)c(=O)c2ccccc21)NCCC1=CCCCC1 | 4.7%
N/C(=N\OC(=O)Cc1ccccc1)c1ccccn1 | 7.47%
Cc1ccc(S(=O)(=O)N(C)C)cc1NC(=O)COC(=O)Cc1ccsc1 | -44.4%
CCC(C(=O)NCCN1CCOCC1)n1nc(C)n2c(cc3sccc32)c1=O (stereo not shown) | 12%
COC(=O)COc1ccc2oc(=O)cc(C)c2c1 | 6.84%
O=C(COC(=O)[C@@H]1CC(O)CN1S(=O)(=O)c1ccccc1[N+](=O)[O-])Nc1ccc2ccccc2c1 (stereo partly shown) | 7%
Cc1cc(C)cc(NC(=O)CSc2nc(N)c(NC(=O)c3cccs3)c(=O)[nH]2)c1 | 17.1%
O=C(COc1ccc(C(=O)c2ccccc2)cc1)NCC1CCCCC1 | 5.16%
CCSc1nc(NCCN(C)C)c2c3c(sc2n1)COC(C)(CC)C3 (stereo not shown) | 11%
CC(=O)N1CCN(c2ccc(NC(=O)c3ccccc3C)cc2)CC1 | 8.99%
CCOc1ccc(S(=O)(=O)NCCC(=O)N2CCCC(C)C2)cc1 (stereo not shown) | -6.39%
Cc1cccc(C(=O)OCC(=O)Nc2ccc3c(c2)OCCO3)c1 | 11.7%

SMILES | hERG current change (%, negative = inhibition) at 1uM
O=c1c2ccccc2nc(/C=C/c2ccc(O)cc2)n1CCc1ccccc1 | 5.45%
Cc1ccc(Oc2ccccc2NC(=O)C2=COCCO2)cc1 | 1.58%
O=C(c1cn2ccccc2n1)N1CCc2c([nH]c3ccccc23)C1c1ccccn1 (stereo not shown) | 14.7%
CCCCOC(=O)Nc1cc(C)c(Cl)cc1OC | 2.85%
CCCCC(CC)C(=O)Nc1cccc(SC)c1 (stereo not shown) | 8.47%
COc1cc(/C=N\Nc2cc(=O)n(C)c(=O)n2C)ccc1O | 8.51%
COc1ccc(C(=O)N2CCCC(c3nc(-c4cccs4)no3)C2)cc1OC (stereo not shown) | -10.9%
CCN(CC)S(=O)(=O)c1cc(NC(=O)COC(=O)Cn2cnc3ccccc32)ccc1C | 8.44%
O=C(Nc1nc(-c2ccc(S(=O)(=O)N3CCCC3)cc2)cs1)c1ccco1 | 12.7%
O=C(O)c1[nH]c2ccc([N+](=O)[O-])cc2c1-c1ccccc1 | 5.9%
O=C1Nc2ccc(S(=O)(=O)NCCC3=CCCCC3)c3cccc1c23 | 0.674%
O=C(N/N=C/c1ccc(OC(F)F)cc1)c1ccc(CSc2nc3ccccc3[nH]2)cc1 | 3.48%
N=c1c2c3c(sc2ncn1N)CCC3 | 11.5%
CCSc1nnc2ccc(-c3ccc(OC)c(OC)c3)nn12 | -6.21%
CCN(CC(=O)Nc1ccc(NC(C)=O)cc1)C(=O)C1CCCC1 | -7.48%
O=C(Cn1cncn1)NCCC(c1ccccc1)c1ccccc1 | 12.5%
COc1ccc(/C=N/NC(=O)c2ccoc2C)cc1OC | 3.24%
Cc1ccc2cc(CN(C(=O)c3cccnc3)C(C)C)c(=O)[nH]c2c1 | 1.12%
